Legend:
[1] = tested on: tomato seedlings; assay: Phytotoxicity of geraniol, drenching treatment of potted tomato seedlings; type: in vivo; settings: Tomato, 50 ml drench, 1 week
Text: Sterilized soil was uniformly mixed, 300 g thereof was then placed in each pot, and tomato seedlings not infected with root-knot nematodes were transplanted thereto.

[2] = tested on: root-knot nematodes (Meloidogyne spp.); assay: Nematocidal activity on hatched root-knot nematodes in Petri dish; type: in vivo; settings: 15 nematodes
Description: In some embodiments, the nematodes used in the experiments were mainly Meloidogyne spp. The below disclosed experiment results are related to the evaluation of nematocidal activity of naturally derived material.
The tomato roots infected with root-knot nematodes were washed with running water and were then cut to a size of about 1 cm, after which 50 g of the cut roots were placed in a 500 ml round-bottom flask containing 200 ml of 0.5% sodium hypochloride (NaOCl), stopped with a rubber stopper, and shaken vigorously for 3 min to sterilize the roots and at the same time burst the egg bag. Thereafter, the solution was passed through a sieve in which 200 mesh was superimposed on 500 mesh, and washed with distilled water, so the eggs of the root-knot nematodes from which the NaOCl solution was removed were recovered.
Next, the eggs of the root-knot nematodes thus recovered were surface-sterilized with 0.5% NaOCl for 10 min, washed thoroughly with sterile distilled water, placed in a phosphate buffer (1%) containing sterilized normal saline, and hatched in an incubator at 25° C.
Thereafter, each mixed solution was diluted to 2000 ppm, 2 to 3 ml thereof was poured into a Petri dish, after which 15 hatched root-knot nematodes were placed in the Petri dish, and nematocidal activity was measured and the results thereof are shown in Table 1 below.
The number of root-knot nematodes used for the experiment on the number of killed root-knot nematodes was 15 at each dilution factor.

Row | Molecule | Extent of phytotoxicity (0-5) ([1]; Geraniol 1,000 ppm) | Phytotoxicity symptom ([1]; Geraniol 1,000 ppm) | Extent of phytotoxicity (0-5) ([1]; Geraniol 2,000 ppm) | number of killed root-knot nematodes ([2]; Geraniol 2,000 ppm, 1 day) | number of killed root-knot nematodes ([2]; 2000 ppm dilution, 2 days) | number of killed root-knot nematodes ([2]; 2000 ppm dilution, 3 days) | Nematocidal efficiency (%) ([2]; 2000 ppm dilution, up to 3 days)
1 | CC(C)=CCC/C(C)=C/CO [Geraniol, 3,7-dimethyl-2,6-octadien-1-ol] | 0 | No | 0 | 15 |  |  | 
2 | C/C=C(\C)C(=O)O[C@H]1C[C@@H](OC(C)=O)[C@@]2(C(=O)OC)CO[C@H]3[C@@H](O)[C@@](C)([C@]45O[C@@]4(C)[C@H]4C[C@@H]5O[C@@H]5OC=C[C@@]54O)[C@H]4[C@]1(CO[C@]4(O)C(=O)OC)[C@@H]32 [Azadirachtin, azadirachtin] |  |  |  |  | 8 | 10 | 
3 | pyrethrin |  |  |  |  | 6 | 11 | 73.3%
